# In PubChem BioAssay (Tox21):
# Values joined by “and” are separate entries in the source; they are usually repeats but may differ in a detail not shown here. Identical values can stand only once. Active and inactive are the calls of the source. Unless noted, calls follow the shape of the dose curve; as a rule, active = well fitted curve in the direction sought with a large enough effect in the repeat runs; inconclusive = weak or mixed curves; inactive = no such curve, though single readings can be large; an effect the other way counts as inactive or inconclusive.
# Legend:
# [1] = qHTS assay for identifying genotoxic compounds that show differential cytotoxicity against isogenic chicken DT40 cell lines with known DNA damage response pathways - wild type cell line (AID 743012); settings: DT40 wild type chicken cells viability, CellTiter-Glo, 40 h; activity change, negative = cytotoxicity: at 68.4 µM (top of the series) unless noted; also: nearly all actives have a fitted effect of over 60% in size; also: potency is read from the fitted curve at half-maximal effect
# Outline: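 CellTiter-Glo luminescence readout of viability in wild type DT40 cells after 40 h compound exposure at 37 C/5% CO2; 300 cells/well; reagent incubated 30 min at room temperature before reading.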
# [2] = qHTS assay for identifying genotoxic compounds that show differential cytotoxicity against isogenic chicken DT40 cell lines with known DNA damage response pathways - Rad54/Ku70 mutant cell line (AID 743015); settings: DT40 Rad54/Ku70 mutant viability, CellTiter-Glo, 40 h; activity change, negative = cytotoxicity: at 66.8 µM (top of the series); also: nearly all actives have a fitted effect of over 60% in size; also: potency is read from the fitted curve at half-maximal effect; as to activity change, negative = cytotoxicity: % is scaled to controls: 0 for no effect and ±100 for the full control effect
# [3] = biological target: Androgen receptor (Homo sapiens) (UniProt P10275); assay: qHTS assay to identify small molecule antagonists of the androgen receptor (AR) signaling pathway using the MDA cell line (AID 743042; also: % is scaled to controls: 0 for no effect and ±100 for the full control effect; nearly all actives have a fitted effect of over 55% in size)
# Outline: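 MDA-kb2 breast carcinoma cells carrying MMTV-luciferase (AR/GR responsive) were co-treated with compounds and the agonist R1881 for 16 h at 37C. Inhibition read as ONE-Glo luminescence; CellTiter-Fluor fluorescence measured in parallel for cytotoxicity.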
# [4] = qHTS assay to identify small molecule antagonists of the estrogen receptor alpha (ER-alpha) signaling pathway using the BG1 cell line - cell viability counter screen (AID 743081);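 also: compound given together with 17beta-estradiol as the ER stimulus; nearly all actives have a fitted effect of over 45% in size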; also: potency is read from the fitted curve at half-maximal effect; as to activity change, negative = cytotoxicity: % is scaled to controls: 0 for no effect and ±100 for the full control effect
# [5] = qHTS assay to identify small molecule antagonists of the androgen receptor (AR) signaling pathway - cell viability counter screen (AID 743033; also: potency is read from the fitted curve at half-maximal effect; nearly all actives have a fitted effect of over 45% in size); settings: AR-bla HEK293 viability, CellTiter-Glo luminescence, 16 h; activity change, negative = cytotoxicity: at 58.5 µM (top of the series)
# [6] = biological target: Androgen receptor (Homo sapiens) (UniProt P10275); assay: qHTS assay to identify small molecule antagonists of the androgen receptor (AR) signaling pathway (AID 743035; active = well fitted inhibition curve with a large enough effect in the signal ratio in the repeat runs, not every such curve was filed as active; inconclusive = weak or mixed curves, or effect the other way; inactive = no such curve, though single readings can be large or run the other way; the % refers to the signal ratio; also: potency is read from the fitted curve at half-maximal effect); settings: HEK293 AR-UAS-bla, R1881-stimulated, beta-lactamase FRET, 16 h; activity change, negative = inhibition: at 58.5 µM (top of the series) unless noted
# Outline: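 AR-bla HEK293 reporter cells; 4 h settle at 37C/5% CO2; compound + R1881 agonist, 16 h at 37C; LiveBLAzer B/G FRET substrate 2 h RT; fluorescence intensity read. qHTS format.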
# [7] = biological target: Androgen receptor (Homo sapiens) (UniProt P10275); assay: qHTS assay to identify small molecule agonists of the androgen receptor (AR) signaling pathway (AID 743036; active = well fitted activation curve with a large enough effect in the signal ratio in the repeat runs, with a control signal flat, not every such curve was filed as active; inconclusive = weak or mixed curves, or effect the other way; inactive = no such curve, though single readings can be large or run the other way; the % refers to the signal ratio; also: potency is read from the fitted curve at half-maximal effect; as to activation: % is scaled to controls: 0 for no effect and ±100 for the full control effect); settings: HEK293 AR-UAS-bla GripTite, beta-lactamase FRET ratio, 16 h; activation: at 62.4 µM (top of the series) unless noted
# Outline: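 HEK293 cells stably carrying a UAS-driven beta-lactamase reporter (GeneBLAzer AR-UAS-bla-GripTite) were plated at 2,000 cells/well, rested 4 h at 37C, then exposed to compounds in DMSO for 16 h. LiveBLAzer B/G FRET substrate was added for 2 h at room temperature; fluorescence read.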
# [8] = biological target: Androgen receptor (Homo sapiens) (UniProt P10275); assay: qHTS assay to identify small molecule agonists of the androgen receptor (AR) signaling pathway using the MDA cell line (AID 743040; also: % is scaled to controls: 0 for no effect and ±100 for the full control effect; nearly all actives have a fitted effect of over 20% in size); settings: MDA-kb2 AR-luc cells, MMTV luciferase, 16 h; activity change: at 70.3 µM (top of the series), stronger effect = higher value unless noted
# Outline: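 Luciferase read-out, ONE-Glo, 30 min RT. Cells: MDA-kb2 AR-luc, MMTV promoter with AR and GR response elements. Compound exposure 16 h, 37C, 0% CO2, after 5 h pre-incubation. qHTS agonist mode.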
# [9] = qHTS assay to identify small molecule antagonists of the thyroid receptor (TR) signaling pathway (AID 743065); also: potency is read from the fitted curve at half-maximal effect; nearly all actives have a fitted effect of over 55% in size
# Outline: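 GH3.TRE-Luc rat pituitary cells (two TREs driving luciferase) were dosed with compound, then stimulated with 1 nM T3 (final) for 23.5 h at 37 C. ONE-Glo luminescence was the read-out, with CellTiter-Fluor fluorescence as the cytotoxicity counter-screen.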
# [10] = biological target: Estrogen receptor (Homo sapiens) (UniProt P03372); assay: qHTS assay to identify small molecule antagonists of the estrogen receptor alpha (ER-alpha) signaling pathway (AID 743069; active = well fitted curve in the direction sought with a large enough effect in the signal ratio in the repeat runs, not every such curve was filed as active; inconclusive = weak or mixed curves, or effect the other way; inactive = no such curve, though single readings can be large or run the other way; the % refers to the signal ratio; also: potency is read from the fitted curve at half-maximal effect); settings: HEK293 ER-alpha-UAS-bla, beta-lactamase ratio, antagonist mode; activity, negative = inhibition: at 69.4 µM (top of the series) unless noted
# Outline: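 Beta-lactamase FRET fluorescence is read after 2 hr at room temperature with LiveBLAzer B/G substrate. Before that, ER-alpha-bla HEK293 cells sit 4 hr after plating, then receive compound plus 17beta-estradiol and incubate 18 hr at 37C.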
# [11] = qHTS assay to identify small molecule antagonists of the estrogen receptor alpha (ER-alpha) signaling pathway - cell viability counter screen (AID 743074; calls by dose curve;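 also: HEK293 cells carrying ER-alpha-UAS-bla reporter stimulated with 17beta-estradiol; potency is read from the fitted curve at half-maximal effect; nearly all actives have a fitted effect of over 45% in size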)
# [12] = qHTS assay to identify small molecule antagonists of the androgen receptor (AR) signaling pathway using the MDA cell line - cell viability counter screen (AID 743041; also: nearly all actives have a fitted effect of over 45% in size; also: potency is read from the fitted curve at half-maximal effect; as to viability change, negative = cytotoxic: % is scaled to controls: 0 for no effect and ±100 for the full control effect); settings: MDA-kb2 viability, CellTiter-Fluor, 16 h, cells co-treated with R1881 androgen agonist; viability change, negative = cytotoxic: at 70.3 µM (top of the series) unless noted
# Outline: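 Cytotoxicity counter screen: MDA-kb2 AR-luc cells, compound + R1881, 16 h, 37C, 0% CO2; CellTiter-Fluor added at 15.5 h, fluorescence read after 30 min.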
# [13] = biological target: Estrogen receptor (Homo sapiens) (UniProt P03372); assay: qHTS assay to identify small molecule agonists of the estrogen receptor alpha (ER-alpha) signaling pathway (AID 743075; calls by dose curve; also: potency is read from the fitted curve at half-maximal effect)
# [14] = biological target: Estrogen receptor (Homo sapiens) (UniProt P03372); assay: qHTS assay to identify small molecule agonists of the estrogen receptor alpha (ER-alpha) signaling pathway using the BG1 cell line (AID 743079); settings: BG1Luc4E2 cells, ERE-luciferase agonist, 22 h; activation: at 70.3 µM (top of the series) unless noted; also: potency is read from the fitted curve at half-maximal effect; nearly all actives have a fitted effect of over 20% in size
# [15] = qHTS assay to identify small molecule antagonists of the estrogen receptor alpha (ER-alpha) signaling pathway using the BG1 cell line (AID 743080; calls by dose curve;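 also: BG1 cells stimulated with 17beta-estradiol alongside compound; potency is read from the fitted curve at half-maximal effect; nearly all actives have a fitted effect of over 25% in size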); settings: BG1Luc4E2 ERE-luciferase antagonist mode, luminescence; activity change, negative = inhibition: at 70.3 µM (top of the series) unless noted
# Outline: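 Quantitative HTS on the Tox21 10K library: BG1 cells with endogenous ER-alpha and ERE-luciferase reporter, 17beta-estradiol stimulation, 21.5 h compound exposure, luminescence endpoint with parallel fluorescence cytotoxicity counter-read.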
# [16] = qHTS assay to identify small molecule antagonists of the thyroid receptor (TR) signaling pathway - cell viability counter screen (AID 743064); settings: GH3.TRE-Luc viability, CellTiter-Fluor, 24 h; activity change, negative = cytotoxic: at 70.3 µM (top of the series) unless noted; also: nearly all actives have a fitted effect of over 50% in size; also: potency is read from the fitted curve at half-maximal effect
# Outline: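 GH3.TRE-Luc rat pituitary cells carrying a TRE-luciferase reporter were treated with compound plus 1 nM T3 (final) for 23.5 h at 37 °C. Viability was then read in the same wells by CellTiter-Fluor fluorescence after a further 30 min.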
# Aromatase (Homo sapiens) = Aromatase (Homo sapiens) (UniProt P11511); assay: qHTS assay to identify aromatase inhibitors (AID 743083); also: potency is read from the fitted curve at half-maximal effect; nearly all actives have a fitted effect of over 55% in size
# Tags tell the direction and shape of the fitted curve or compound fluorescence and quenching.
# Chain of UniProt P10275 (P10275 whole entry, looked up): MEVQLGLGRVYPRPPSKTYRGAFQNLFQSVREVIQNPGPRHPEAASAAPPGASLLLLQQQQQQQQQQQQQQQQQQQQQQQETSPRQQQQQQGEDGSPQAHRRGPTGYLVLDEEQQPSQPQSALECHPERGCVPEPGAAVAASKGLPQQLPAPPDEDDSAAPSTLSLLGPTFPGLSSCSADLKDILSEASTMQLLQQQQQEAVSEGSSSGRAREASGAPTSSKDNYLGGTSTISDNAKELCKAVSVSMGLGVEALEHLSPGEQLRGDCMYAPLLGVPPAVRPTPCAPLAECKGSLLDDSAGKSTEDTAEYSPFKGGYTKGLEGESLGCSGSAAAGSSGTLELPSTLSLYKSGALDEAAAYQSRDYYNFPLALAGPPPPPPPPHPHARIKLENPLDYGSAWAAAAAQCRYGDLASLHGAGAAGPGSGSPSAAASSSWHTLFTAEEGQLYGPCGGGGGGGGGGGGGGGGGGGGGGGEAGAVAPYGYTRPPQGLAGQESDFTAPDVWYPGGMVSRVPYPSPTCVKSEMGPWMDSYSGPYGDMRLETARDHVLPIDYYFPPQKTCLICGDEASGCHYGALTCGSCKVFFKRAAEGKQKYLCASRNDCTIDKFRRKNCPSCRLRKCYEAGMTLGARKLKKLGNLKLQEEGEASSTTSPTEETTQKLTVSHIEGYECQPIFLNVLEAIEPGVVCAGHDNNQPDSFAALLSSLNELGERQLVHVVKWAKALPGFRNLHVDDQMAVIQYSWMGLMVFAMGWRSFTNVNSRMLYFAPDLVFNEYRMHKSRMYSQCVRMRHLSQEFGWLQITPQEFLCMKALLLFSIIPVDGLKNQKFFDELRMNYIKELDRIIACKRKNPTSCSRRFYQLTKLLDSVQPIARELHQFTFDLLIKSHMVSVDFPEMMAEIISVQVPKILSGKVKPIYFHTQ
# Chain of UniProt P03372 (P03372 whole entry, looked up): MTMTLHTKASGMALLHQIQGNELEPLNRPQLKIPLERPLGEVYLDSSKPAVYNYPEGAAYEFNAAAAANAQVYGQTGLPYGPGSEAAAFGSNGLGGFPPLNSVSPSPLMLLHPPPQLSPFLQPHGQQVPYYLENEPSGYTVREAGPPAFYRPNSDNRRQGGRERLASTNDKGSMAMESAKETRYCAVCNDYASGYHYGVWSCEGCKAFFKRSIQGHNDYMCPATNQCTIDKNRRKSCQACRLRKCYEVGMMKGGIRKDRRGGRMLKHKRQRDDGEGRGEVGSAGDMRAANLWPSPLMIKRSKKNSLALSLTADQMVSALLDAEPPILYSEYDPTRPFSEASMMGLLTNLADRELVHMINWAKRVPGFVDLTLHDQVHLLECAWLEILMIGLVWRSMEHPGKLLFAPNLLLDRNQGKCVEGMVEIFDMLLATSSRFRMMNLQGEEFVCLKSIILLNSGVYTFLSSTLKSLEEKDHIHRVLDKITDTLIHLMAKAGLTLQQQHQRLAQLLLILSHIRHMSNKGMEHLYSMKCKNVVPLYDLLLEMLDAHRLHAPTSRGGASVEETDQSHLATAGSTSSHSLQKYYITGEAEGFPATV
# Chain of UniProt P11511 (P11511 whole entry, looked up): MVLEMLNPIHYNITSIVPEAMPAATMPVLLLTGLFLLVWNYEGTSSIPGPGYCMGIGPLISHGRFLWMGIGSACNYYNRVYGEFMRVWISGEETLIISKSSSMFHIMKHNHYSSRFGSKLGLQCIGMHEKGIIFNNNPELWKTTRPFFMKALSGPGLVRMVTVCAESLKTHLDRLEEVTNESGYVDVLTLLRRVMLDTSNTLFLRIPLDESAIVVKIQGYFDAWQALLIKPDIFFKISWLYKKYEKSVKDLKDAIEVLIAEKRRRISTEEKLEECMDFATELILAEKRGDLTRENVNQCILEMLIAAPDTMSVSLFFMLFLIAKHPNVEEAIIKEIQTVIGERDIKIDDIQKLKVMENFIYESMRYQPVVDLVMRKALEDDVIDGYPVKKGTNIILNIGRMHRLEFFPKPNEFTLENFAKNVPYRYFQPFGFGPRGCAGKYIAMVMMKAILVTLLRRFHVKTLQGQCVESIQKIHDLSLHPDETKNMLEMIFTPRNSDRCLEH
smiles,measurement,setting,value
CC(=O)[C@@]1(O)CC[C@H]2[C@@H]3CCC4=CC(=O)CC[C@]4(C)[C@H]3CC[C@@]21C,Potency,[1],"inconclusive: 26.6 µM [cytotoxic, partial curve] and inconclusive: 9.69 µM [cytotoxic, full curve]"
same,Potency,[2],"inconclusive: 26.6 µM [cytotoxic, single point]"
CCNc1ccccc1,Potency,[1],"inconclusive: 69.8 µM [rising, single point]"
same,Potency,[2],inactive
same,Potency,[3],inactive
same,Potency,[4],inactive
O=C(CCc1ccc(O)cc1)c1c(O)cc(O)cc1O,Potency,[1],"inconclusive: 0.249 µM [rising, single point]"
same,Potency,[2],"inconclusive: 70.1 µM [cytotoxic, single point]"
same,Potency,[5],"inconclusive: 63.1 µM [cytotoxic, partial curve, poor fit]"
same,Potency,[6],"inconclusive: 25.1 µM [rising, partial curve]"
same,Potency,[7],"inconclusive: 15.8 µM [rising, partial curve, poor fit]"
same,activity change,[8],"inconclusive: -1.52% [phenotype inactive] [at 95 µM, stronger effect = higher value]"
same,Potency,[9],"inconclusive: 62.5 µM [inhibitor, single point]"
same,Potency,[10],"inconclusive: 44.6 µM [rising, partial curve]"
same,Potency,[11],"inconclusive: 50.1 µM [rising, single point]"
COc1cnc(NS(=O)(=O)c2ccc(N)cc2)nc1,Potency,[1],inconclusive: 14.3 µM [cytotoxic]
same,Potency,[2],"inconclusive: 14.3 µM [cytotoxic, single point]"
Oc1ccc(N=Nc2ccccc2)cc1,Potency,[1],"inconclusive: 8.75 µM [rising, full curve]"
same,Potency,[2],"inconclusive: 69.5 µM [cytotoxic, single point]"
same,Potency,[5],"inconclusive: 35.1 µM [cytotoxic, partial curve, poor fit]"
same,Potency,[6],"inconclusive: 14 µM [rising, partial curve]"
same,activation,[7],inconclusive: 5.91% [at 79.1 µM]
same,Potency,[12],"inconclusive: 69.5 µM [cytotoxic, single point]"
same,Potency,[3],inactive
same,Potency,[10],active: 39.4 µM [inconclusive]
same,Potency,[11],"inconclusive: 55.7 µM [cytotoxic, single point]"
same,Potency,[13],active: 49.6 µM [inconclusive]
same,Potency,[14],active: 6.19 µM
same,Potency,[15],"inconclusive: 7.8 µM [rising, partial curve]"
same,Potency,[4],"inconclusive: 31 µM [cytotoxic, partial curve]"
OCCNCc1ccccc1,Potency,[1],"inconclusive: 0.686 µM [rising, full curve, poor fit]"
same,Potency,[2],inactive
same,Potency,[12],inactive
CC(=O)[C@H]1CC[C@H]2[C@@H]3C=CC4=CC(=O)CC[C@@]4(C)[C@@H]3CC[C@]12C,Potency,[1],active: 4.03 µM
same,Potency,[2],active: 4.52 µM
same,"activity change, negative = inhibition",[6],inconclusive: -10.5% [at 27 µM]
same,Potency,[7],"inconclusive: 0.406 µM [activator, full curve]"
same,Potency,[16],inactive
same,Potency,[9],"inconclusive: 9.02 µM [inhibitor, partial curve]"
same,"activity, negative = inhibition",[10],inconclusive: 38.5% [at 32.6 µM]
O=C(O)CNC(=O)c1ccc([N+](=O)[O-])cc1,Potency,[1],inactive
same,Potency,[2],"inconclusive: 68.2 µM [cytotoxic, single point]"
Cc1c(C(=O)O)c(O)cc2c1C(=O)c1c(O)c([C@@H]3O[C@H](CO)[C@@H](O)[C@H](O)[C@H]3O)c(O)c(O)c1C2=O,Potency,[1],"inactive and inconclusive: 30.6 µM [cytotoxic, partial curve, poor fit]"
same,Potency,[2],inconclusive: 29.8 µM [cytotoxic]
same,Potency,[12],"inconclusive: 27.8 µM [cytotoxic, partial curve]"
same,Potency,[16],active: 13.3 µM and active: 59.6 µM and active: 61.1 µM
same,Potency,[9],"inconclusive: 29.8 µM [inhibitor] and inconclusive: 66.9 µM [inhibitor, partial curve] and inconclusive: 61.1 µM [inhibitor]"
same,Potency,[11],"inconclusive: 24 µM [cytotoxic, single point]"
same,Potency,[14],"inconclusive: 33.5 µM [inhibitor, partial curve]"
same,Potency,[15],"inconclusive: 21.1 µM [falling, partial curve] and inconclusive: 29.9 µM [falling, partial curve] and inconclusive: 48.6 µM [falling, partial curve]"
same,Potency,[4],active: 18.8 µM and active: 29.9 µM and active: 27.3 µM
same,Potency,Aromatase (Homo sapiens),"inconclusive: 8.41 µM [inhibitor, partial curve, poor fit] and inconclusive: 29.9 µM [inhibitor, partial curve] and inconclusive: 48.6 µM [inhibitor, partial curve]"
C[C@@H](O)[C@H]1C(=O)N2C(C(=O)O)=C([C@H]3CCCO3)S[C@H]12,Potency,[1],"inconclusive: 33.5 µM [rising, partial curve, poor fit]"
same,Potency,[2],inactive
same,Potency,[7],inactive
same,Potency,[3],inactive
